Measurements reported in the supplement of paper PMC8728848.
Some of the results follow.

Columns and labels:
Test in all cases: glycan array binding signal (z-score within array); higher = stronger binding
Conditions in all cases: glycan notation: IUPAC condensed, linker removed
[1] = molecular target: Neu5Ac(a2-6)Gal(b1-4)GlcNAc(b1-3)[Neu5Ac(a2-6)Gal(b1-4)GlcNAc(b1-6)]GalNAc
Method in brief: (§1)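 Columns mapping to the same glycan were averaged after glycan names were converted to IUPAC-condensed notation. The data come from 3228 arrays in the Consortium for Functional Glycomics database, limited to those with an available protein sequence. Binding is reported as a within-array Z-score averaged across arrays of one protein sequence and across linkers.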

[2] = molecular target: Neu5Ac(a2-6)Gal(b1-4)GlcNAc(b1-6)GalNAc
Method in brief: as §1

[3] = molecular target: Neu5Ac(a2-6)Gal(b1-4)GlcNAc(b1-6)[Gal(b1-3)GlcNAc(b1-3)]Gal(b1-4)Glc
Method in brief: as §1

[4] = molecular target: Neu5Ac(a2-6)Gal(b1-4)GlcNAc(b1-6)[Gal(b1-3)]GalNAc
Method in brief: as §1

[5] = molecular target: Neu5Ac(a2-6)Gal(b1-4)GlcNAc6S
Method in brief: as §1

[6] = molecular target: Neu5Ac(a2-6)GalNAc
Method in brief: as §1

[7] = molecular target: Neu5Ac(a2-6)GalNAc(b1-4)GlcNAc
Method in brief: as §1

[8] = molecular target: Neu5Ac(a2-6)GalNAc(b1-4)GlcNAc6S
Method in brief: as §1

[9] = molecular target: Neu5Ac(a2-6)GlcNAc(b1-4)GlcNAc
Method in brief: as §1

[10] = molecular target: Neu5Ac(a2-6)GlcNAc(b1-4)GlcNAc(b1-4)GlcNAc
Method in brief: as §1

[11] = molecular target: Neu5Ac(a2-8)Neu5Ac
Method in brief: as §1

[12] = molecular target: Neu5Ac(a2-8)Neu5Ac(a2-3)Gal(b1-3)GalNAc(b1-4)[Neu5Ac(a2-3)]Gal(b1-4)Glc
Method in brief: as §1

[13] = molecular target: Neu5Ac(a2-8)Neu5Ac(a2-3)Gal(b1-3)GalNAc(b1-4)[Neu5Ac(a2-8)Neu5Ac(a2-3)]Gal(b1-4)Glc
Method in brief: as §1

[14] = molecular target: Neu5Ac(a2-8)Neu5Ac(a2-3)Gal(b1-4)Glc
Method in brief: as §1

[15] = molecular target: Neu5Ac(a2-8)Neu5Ac(a2-3)Gal(b1-4)GlcNAc
Method in brief: as §1

[16] = molecular target: Neu5Ac(a2-8)Neu5Ac(a2-3)[Gal(b1-3)GalNAc(b1-4)]Gal(b1-4)Glc
Method in brief: as §1

[17] = molecular target: Neu5Ac(a2-8)Neu5Ac(a2-3)[GalNAc(b1-4)]Gal(b1-4)Glc
Method in brief: as §1

[18] = molecular target: Neu5Ac(a2-8)Neu5Ac(a2-8)Neu5Ac
Method in brief: as §1

[19] = molecular target: Neu5Ac(a2-8)Neu5Ac(a2-8)Neu5Ac(a2-3)Gal(b1-4)Glc
Method in brief: as §1

[20] = molecular target: Neu5Ac(a2-8)Neu5Ac(a2-8)Neu5Ac(a2-3)[Gal(b1-3)GalNAc(b1-4)]Gal(b1-4)Glc
Method in brief: as §1

[21] = molecular target: Neu5Ac(a2-8)Neu5Ac(a2-8)Neu5Ac(a2-3)[GalNAc(b1-4)]Gal(b1-4)Glc
Method in brief: as §1

[22] = molecular target: Neu5Ac(a2-8)Neu5Ac(a2-8)Neu5Ac(a2-8)Neu5Ac(a2-3)[GalNAc(b1-4)]Gal(b1-4)Glc
Method in brief: as §1

[23] = molecular target: Neu5Ac(a2-8)Neu5Gc(a2-3)Gal(b1-4)GlcNAc
Method in brief: as §1

[24] = molecular target: Neu5Ac(b2-6)Gal(b1-4)GlcNAc
Method in brief: as §1

[25] = molecular target: Neu5Ac(b2-6)GalNAc
Method in brief: as §1

[26] = molecular target: Neu5Ac9Ac(a2-3)Gal(b1-3)GlcNAc
Method in brief: as §1

[27] = molecular target: Neu5Ac9Ac(a2-3)Gal(b1-4)GlcNAc
Method in brief: as §1

[28] = molecular target: Neu5Ac9Ac(a2-6)Gal(b1-4)GlcNAc
Method in brief: as §1

[29] = molecular target: Neu5Gc(a2-3)Gal(b1-3)GlcNAc
Method in brief: as §1

[30] = molecular target: Neu5Gc(a2-3)Gal(b1-3)[Fuc(a1-4)]GlcNAc
Method in brief: as §1

[31] = molecular target: Neu5Gc(a2-3)Gal(b1-4)Glc
Method in brief: as §1

[32] = molecular target: Neu5Gc(a2-3)Gal(b1-4)GlcNAc
Method in brief: as §1

[33] = molecular target: Neu5Gc(a2-3)Gal(b1-4)GlcNAc(b1-3)Gal(b1-4)GlcNAc(b1-2)Man(a1-3)[Neu5Gc(a2-3)Gal(b1-4)GlcNAc(b1-3)Gal(b1-4)GlcNAc(b1-2)Man(a1-6)]Man(b1-4)GlcNAc(b1-4)GlcNAc
Method in brief: as §1

[34] = molecular target: Neu5Gc(a2-3)Gal(b1-4)[Fuc(a1-3)]GlcNAc
Method in brief: as §1

[35] = molecular target: Neu5Gc(a2-6)Gal(b1-4)GlcNAc
Method in brief: as §1

[36] = molecular target: Neu5Gc(a2-6)GalNAc
Method in brief: as §1

[37] = molecular target: Neu5Gc(a2-8)Neu5Ac(a2-3)Gal(b1-4)GlcNAc
Method in brief: as §1

[38] = molecular target: Neu5Gc(a2-8)Neu5Gc(a2-3)Gal(b1-4)GlcNAc
Method in brief: as §1

B1: Als3-41 (Candida albicans) (protein)
chain: KTITGVFNSFNSLTWSNAATYNYKGPGTPTWNAVLGWSLDGTSASPGDTFTLNMPCVFKFTTSQTSVDLTAHGVKYATCQFQAGEEFMTFSTLTCTVSNTLTPSIKALGTVTLPLAFNVGGTGSSVDLEDSKCFTAGTNTVTFNDGGKKISINVDFERSNVDPKGYLTDSRVIPSLNKVSTLFVAPQCANGYTSGTMGFANTYGDVQIDCSNIHVGITKGLNDWNYPVSSESFSYTKTCSSNGIFITYKNVPAGYRPFVDAYISATDVNSYTLSYANEYTCAGGYWQRAPFTLRWTGYRNSDAGSNGIVIVATTRTVTDSTTAVTTLPFDPNRDKTKTIEILKPIPTTTITTSYVGVTTSYLTKTAPIGETATVIVD
For B1, the “glycan array binding signal (z-score)” value [1] was -0.12, the “glycan array binding signal (z-score)” value [2] was 0.026 and the “glycan array binding signal (z-score)” value [3] was -0.325. For the same binder, the “glycan array binding signal (z-score)” value [4] was 0.534, the “glycan array binding signal (z-score)” value [5] was -0.197 and the “glycan array binding signal (z-score)” value [6] was -0.191. For the same binder, the “glycan array binding signal (z-score)” value [7] was -0.311, the “glycan array binding signal (z-score)” value [8] was 0.088 and the “glycan array binding signal (z-score)” value [9] was -0.311. For the same binder, the “glycan array binding signal (z-score)” value [10] was -0.212, the “glycan array binding signal (z-score)” value [11] was -0.128 and the “glycan array binding signal (z-score)” value [12] was -0.246. The “glycan array binding signal (z-score)” value [13] was -0.268, the “glycan array binding signal (z-score)” value [14] was -0.292 and the “glycan array binding signal (z-score)” value [15] was -0.333. For the same binder, the “glycan array binding signal (z-score)” value [16] was -0.006, the “glycan array binding signal (z-score)” value [17] was -0.239 and the “glycan array binding signal (z-score)” value [18] was -0.29. For the same binder, the “glycan array binding signal (z-score)” value [19] was -0.304, the “glycan array binding signal (z-score)” value [20] was 0.009 and the “glycan array binding signal (z-score)” value [21] was -0.253. For the same binder, the “glycan array binding signal (z-score)” value [22] was -0.297, the “glycan array binding signal (z-score)” value [23] was -0.286 and the “glycan array binding signal (z-score)” value [24] was -0.251. The “glycan array binding signal (z-score)” value [25] was -0.297, the “glycan array binding signal (z-score)” value [26] was -0.259 and the “glycan array binding signal (z-score)” value [27] was -0.38. The “glycan array binding signal (z-score)” value [28] was -0.039, the “glycan array binding signal (z-score)” value [29] was -0.189 and the “glycan array binding signal (z-score)” value [30] was 0.009. For the same binder, the “glycan array binding signal (z-score)” value [31] was 0.09, the “glycan array binding signal (z-score)” value [32] was -0.271 and the “glycan array binding signal (z-score)” value [33] was -0.118. The “glycan array binding signal (z-score)” value [34] was -0.073, the “glycan array binding signal (z-score)” value [35] was 0.561 and the “glycan array binding signal (z-score)” value [36] was -0.133. The “glycan array binding signal (z-score)” value [37] was -0.106 and the “glycan array binding signal (z-score)” value [38] was -0.268.
